PubChem BioAssay AID463173 (ICCB-Longwood Screening Facility, Harvard Medical School, 2010)
Among all 52,000 compounds or so, about 1,700 (3.3%) were called active. Cut-off read from the data, not from the text of the source: active = survival mostly below about 52% (no sharp cut-off); inactive = mostly above about 56%. The list shows a part of the results.

Each compound was assayed on Wild type (assay: growth inhibition of S. aureus wild type versus tarO mutant, primary screen, teichoic acid synthesis inhibitors, RN4220, OD600 (AID 463173)). Conditions: S. aureus RN4220 wild type/DeltatarO growth, OD600, 18 h, stronger effect = lower value, screened at 18.75 µg/mL (by protocol).

| SMILES | survival |
| --- | --- |
| CN(C)c1nc(N(C)C)nc(N2CC(=O)N(N)C2=N)n1 | inactive: 125% |
| CCc1nn2c(=O)c(S(=O)(=O)Nc3ccc(C(C)C)cc3)c(C)nc2s1 | inactive: 70% |
| Cc1ccc(C)c(N2CCN(C(=O)C3CCC(CNS(=O)(=O)c4cccs4)CC3)CC2)c1 (stereo not given) | inactive: 77% |
| CCC1CN(C(=O)N2CCC(C(=O)NCCc3ccc(OC)c(OC)c3)CC2)c2ccccc2O1 (stereo not given) | inactive: 80% |
| CCOC(=O)N1CCc2c(sc3c2c(=O)n(-c2ccc(CC)cc2)c(=O)n3Cc2cccc(Cl)c2)C1 | inactive: 81% |
| Cc1ccc(CNC(=O)CSc2c(C)cnc3c2c(=O)n(C)c(=O)n3C)cc1 | inactive: 51% |
| CC1CCN(S(=O)(=O)c2ccc3nc(NCc4ccc(N(C)C)cc4)ccc3c2)CC1 | inactive: 65% |
| Cc1ccc(C)c(N2CCN(C(=O)c3cc4cc5ccc(C)cc5nc4o3)CC2)c1 | inactive: 84% |
| O=S(=O)(c1ccc(S(=O)(=O)N2CCC3(CC2)OCCO3)cc1)N1CCCC1 | inactive: 105% |
| Cc1ccc(NC(=O)C2CCN(S(=O)(=O)c3cccc4nsnc34)CC2)cc1 | inactive: 89% |
| CCn1cc(C(=O)OCC(=O)Nc2cc(Cl)ccc2C)c(=O)c2ccc(C)nc21 | inactive: 68% |
| Cc1ccc(NC(=O)CN2C(=O)C(c3ccc(F)cc3)=NC23CCCCCC3)c(C)c1 | inactive: 99% |
| CCCCOc1ccc(C2C(=O)N(C3CCCCC3)CC(=O)N2C2CCCCC2)cc1 (stereo not given) | inactive: 73% |
| CCN(Cc1ccccc1)C(c1ccccn1)c1nnnn1C1CCCCC1 (stereo not given) | inactive: 105% |
| Nc1nonc1-c1nc2ccccc2n1CCn1c(-c2nonc2N)nc2ccccc21 | inactive: 105% |
| CCc1cccc(NC(=O)Cn2c(=O)n(CCCCCC(=O)NCc3ccc(F)cc3)c(=O)c3sccc32)c1 | inactive: 79% |
| CCOC(=O)c1ccccc1NC(=O)CN(c1ccccc1)S(=O)(=O)c1ccc(OCC)cc1 | inactive: 85% |
| Cc1cccc(NC(=O)Nc2cccs2)c1C | inactive: 76% |
| CCn1nc(C)c2c(-c3ccccc3)cc(=O)n(C(C)C(=O)Nc3ccc(OC)c(OC)c3)c21 (stereo not given) | inactive: 59% |
| COc1ccc(C2C=C(c3ccccc3)Nc3nc(NC(C)=O)nn32)cc1 (stereo not given) | inactive: 85% |
| Cc1ccc(C)c(NC(=O)Cn2ncc3c(C)n(Cc4ccc(F)cc4)c(C)c3c2=O)c1 | inactive: 87% |
| COc1ccc(-c2cn3c(c2C)-c2ccc(C)n2CC3)cc1 | inactive: 115% |
| CCCCCCc1c(C)c2c(cc(C)c3c(C)coc32)oc1=O | inactive: 95% |

| SMILES | survival |
| --- | --- |
| CC1=C(c2ccc(C)c(C)c2)S(=O)(=O)N(Cc2ccc(C(=O)NCc3ccccc3F)cc2)C1=O | inactive: 92% |
| COc1ccc(-c2cc(C(F)(F)F)n3nc(C)c(-c4ccccc4)c3n2)cc1OC | inactive: 78% |
| O=C(CCc1cn(Cc2ccc(F)cc2)c2ccccc12)NC1CCCCC1 | inactive: 90% |
| CCOc1ccc(NC(=O)NCCN2CCN(c3cc(Cl)ccc3C)CC2)cc1 | inactive: 53% |
| O=C(NCCc1ccccc1)c1c[nH]c2ccc(S(=O)(=O)Nc3ccc(F)cc3F)cc2c1=O | inactive: 75% |
| CCCC(=O)Nc1cc2nn(-c3ccc(OC)cc3)nc2cc1C | inactive: 73% |
| Nc1nnc(CC(=O)N2CCCC2)s1 | inactive: 116% |
| Cc1ccc(C)c(OCC(=O)Nc2sc3c(c2C#N)CCCC3)c1C | inactive: 60% |
| CCC1CCCCN1CCCNC(=O)c1ccc2c(c1)c(C)c(C)n2CC (stereo not given) | inactive: 68% |
| CCOC(=O)c1c(Nc2ccc(C)c(C)c2)nnc(-c2ccccc2)c1-c1ccccc1 | active: 0% |
| COc1ccc(CNC(=O)CN2N=C(c3ccc(Cl)cc3)CCC2=O)cc1 | inactive: 123% |
| Cc1cc(C)c(NC(=O)Cn2c(=O)n(CCC(C)C)c(=O)c3cccnc32)c(C)c1 | inactive: 83% |
| COc1ccc(-c2nn(C)c3sc(C(=O)NCCN(C)C)cc23)cc1OC | inactive: 82% |
| COc1cccc(NC(=O)C2CCCN(c3ncnc4onc(-c5ccc(F)cc5)c34)C2)c1 (stereo not given) | inactive: 97% |
| O=C(O)Cn1ccc(=O)[nH]c1=O | inactive: 109% |
| CCc1ccc(C(=O)c2cn(CC(=O)NCCc3ccccc3)c3nc(C)ccc3c2=O)cc1 | inactive: 74% |
| COc1ccc(C(=O)CC2(O)C(=O)N(Cc3ccccc3)c3ccc(Br)cc32)cc1 (stereo not given) | inactive: 57% |
| Cc1ccc(N2CC(NC(=O)CCCc3ccccc3)CC2=O)cc1 (stereo not given) | inactive: 53% |
| COc1ccc(Cn2c(SCc3ccc(C(=O)NCc4ccc(C)cc4)cc3)nc3cccnc32)cc1 | inactive: 85% |
| O=C(NCCc1ccccc1)c1ccc2c(c1)N(Cc1ccc(Cl)cc1)C(=O)c1ccccc1S2(=O)=O | inactive: 102% |
| O=C(NCCSc1c[nH]c2ccccc12)c1ccc(Cl)cc1 | inactive: 51% |
| Cc1ccc(C2=Nc3ccccc3N=C(c3ccc(F)cc3)C2)c(O)c1 | inactive: 83% |
| CCN(c1ccccc1C)S(=O)(=O)c1nnc(NC(=O)c2ccc(OC)c(OC)c2)s1 | inactive: 42% |

| SMILES | survival |
| --- | --- |
| CCc1nc(SC)ncc1C(=O)NCc1cccc(Br)c1 | inactive: 113% |
| COC(=O)Cc1[nH]nc2c1C(c1c[nH]c3ccccc13)C(C#N)=C(N)O2 (stereo not given) | inactive: 101% |
| CCc1ccc2[nH]c(=O)c(CN(Cc3ccco3)Cc3nnnn3Cc3ccccc3)cc2c1 | inactive: 110% |
| COc1ccc(CNC(=O)c2ccc(CN3C(=O)C(C)=C(c4ccc(C)cc4)S3(=O)=O)cc2)cc1 | inactive: 82% |
| Cc1cc(O)c2c(C)c(CC(=O)NCc3ccccc3Cl)c(=O)oc2c1 | inactive: 66% |
| O=C(Cn1nc(Cc2cccnc2)c2ccccc2c1=O)N1CCN(c2ccccc2F)CC1 | inactive: 74% |
| Cc1ccc(Cl)cc1N1CCN(c2nc3ccc(C(=O)c4ccccc4)cc3n3cnnc23)CC1 | active: -6% |
| CC1=C(C(=O)NCc2cccc(F)c2)C2(CCCCCC2)OC1=O | inactive: 65% |
| Cc1ccc(-n2ncc(C(=O)Nc3ccc4c(c3)OCCO4)c2C2CCN(C(=O)OC(C)(C)C)CC2)cc1C | inactive: 82% |
| O=C(NCCCN=C1NS(=O)(=O)c2ccccc21)c1ccncc1 | inactive: 111% |
| COc1ccc(CNC(=O)c2cc(-c3ccc(Br)s3)nc3ccccc23)c(OC)c1 | inactive: 92% |
| O=C(NC1CCCC1)c1cc2sccc2n1Cc1ccccc1 | inactive: 122% |
| Oc1ccc(N=Cc2ccccc2O)cc1 | inactive: 84% |
| COCCN1CCc2nc(SCC(=O)Nc3ccc(C)c(Cl)c3)[nH]c(=O)c2C1 | inactive: 85% |
| COc1ccccc1N1CCN(C(=O)Cn2ncc3c2-c2cc(C)ccc2OC3)CC1 | inactive: 72% |
| COc1ccc(Nc2nc3ccc(C)cc3nc2-n2nc(C)cc2C)cc1Cl | inactive: 77% |
| CCOC(=O)c1cc2occc2n1CCc1ccccc1 | inactive: 123% |
| CCOc1ccccc1CNC(=O)Cn1c(=O)c2cccn2c2ccc(F)cc21 | inactive: 98% |
| COc1ccccc1NC(=O)CC1Sc2ccc(C(F)(F)F)cc2NC1=O (stereo not given) | inactive: 95% |
| CCOC(=O)c1noc2ncn(CC(=O)Nc3ccc(F)cc3Cl)c(=O)c12 | active: -6% |
| COc1ccc(-c2onc(C)c2C)cc1S(=O)(=O)NCc1cccs1 | inactive: 76% |
| CC1=C(C(=O)OCc2ccc(C)cc2)C(c2ccccc2C(F)(F)F)CC(=O)N1 (stereo not given) | inactive: 134% |
| CCOc1ccc(C(=O)Nc2ccc3c(c2)CCCN3S(=O)(=O)c2ccc(C)cc2)cc1 | inactive: 70% |

| SMILES | survival |
| --- | --- |
| CC1CCCCN1Cc1c(O)ccc2c(=O)c(-c3ccc(Cl)cc3)c(C(F)(F)F)oc12 (stereo not given) | inactive: 128% |
| Cc1ccc(OCCSc2nc3ccccc3n2CC(=O)N2CCOCC2)cc1 | inactive: 113% |
| NC(=O)CCn1c2ccccc2c2ccccc21 | inactive: 108% |
| COC(=O)c1c(NC(=O)c2ccc(Cl)c(Cl)c2)sc2c1CCCC2 | inactive: 69% |
| CCOC(=O)c1sc2ncn(CC(=O)Nc3ccc(F)cc3F)c(=O)c2c1C | inactive: 129% |
| CCOc1ccc(NC(=O)CSc2nnc3scc(-c4ccccc4)n23)cc1 | inactive: 48% |
| O=C(Nc1ccc(S(=O)(=O)N2CCCCC2)cc1)C(F)(F)F | inactive: 107% |
| CCOc1ccccc1NC(=O)Cn1c(=O)n(Cc2ccc(OC)cc2)c(=O)c2oc3ccccc3c21 | inactive: 85% |
| COc1ccc(OC)c(CNC(=O)CCCn2c(=O)c3cccn3c3cccnc32)c1 | inactive: 79% |
| Cc1oc(-c2ccccc2F)nc1Cn1c(SCc2cccc(C(F)(F)F)c2)nc2ccncc21 | inactive: 81% |
| O=C1c2ccccc2NC2(CCCCC2)N1Cc1ccco1 | inactive: 127% |
| CCc1ccccc1NC(=O)c1cc(-c2ccc(Cl)s2)nc2ccccc12 | inactive: 94% |
| O=C(Nc1ccccc1F)c1cnc(N2CCCCC2)c2ccccc12 | inactive: 125% |
| Cc1cc2c(cc1S(=O)(=O)Nc1ccc(C(C)C)cc1)OCCN2C | inactive: 86% |
| COc1ccccc1-c1nnc(C2CCN(C(=O)c3ccccc3C)CC2)o1 | inactive: 77% |
| Cc1ccc(C(c2nnnn2C(C)(C)C)N2CCC(C)CC2)cc1 (stereo not given) | inactive: 103% |
| COc1ccc(N(CC(=O)Nc2cc(OC)cc(OC)c2)S(=O)(=O)c2c(C)noc2C)cc1 | inactive: 37% |
| Cc1cccc(-n2cnc3cc(C(=O)NCc4ccccc4Cl)ccc32)c1 | inactive: 68% |
| Cc1ccc(C(C)C)c(OCC(=O)Nc2cc(-c3nc4ccccc4[nH]3)ccc2C)c1 | inactive: 44% |
| COc1ccccc1NC(=O)c1cc2c(=O)n(Cc3cccs3)ccc2nc1C | inactive: 87% |
| O=C(CSc1nc2ccccc2o1)Nc1ccc(S(=O)(=O)NC2CCCC2)cc1 | inactive: 129% |
